Assay results taken from PubChem BioAssay AID1159614 (National Center for Advancing Translational Sciences (NCATS), 2016).
Hit rate of the full screen: of about 45,000 compounds, about 65 (0.1%) were called active. The call rests on the fitted dose curve; in most records, active means well fitted activation curve with a large enough effect; inconclusive means small, poorly fitted or top-dose-only effect; inactive means no such curve, though single readings can be large or run the other way. The list shows a part of the results.

Each compound was assayed against Galactocerebrosidase (Homo sapiens) (UniProt P54803) (assay: A Novel Cell-Based Assay to Identify Small Molecules for B -Galactocerebrosidase). Conditions: 145M-Twi-hGALC-G270D cells (Twitcher mouse brain line with human GALC G270D), HMU-beta-Gal fluorescence, 48 h; series mostly up to 57.5 µM; activation: at the top concentration.
Sequence of UniProt P54803 (P54803 whole entry, looked up): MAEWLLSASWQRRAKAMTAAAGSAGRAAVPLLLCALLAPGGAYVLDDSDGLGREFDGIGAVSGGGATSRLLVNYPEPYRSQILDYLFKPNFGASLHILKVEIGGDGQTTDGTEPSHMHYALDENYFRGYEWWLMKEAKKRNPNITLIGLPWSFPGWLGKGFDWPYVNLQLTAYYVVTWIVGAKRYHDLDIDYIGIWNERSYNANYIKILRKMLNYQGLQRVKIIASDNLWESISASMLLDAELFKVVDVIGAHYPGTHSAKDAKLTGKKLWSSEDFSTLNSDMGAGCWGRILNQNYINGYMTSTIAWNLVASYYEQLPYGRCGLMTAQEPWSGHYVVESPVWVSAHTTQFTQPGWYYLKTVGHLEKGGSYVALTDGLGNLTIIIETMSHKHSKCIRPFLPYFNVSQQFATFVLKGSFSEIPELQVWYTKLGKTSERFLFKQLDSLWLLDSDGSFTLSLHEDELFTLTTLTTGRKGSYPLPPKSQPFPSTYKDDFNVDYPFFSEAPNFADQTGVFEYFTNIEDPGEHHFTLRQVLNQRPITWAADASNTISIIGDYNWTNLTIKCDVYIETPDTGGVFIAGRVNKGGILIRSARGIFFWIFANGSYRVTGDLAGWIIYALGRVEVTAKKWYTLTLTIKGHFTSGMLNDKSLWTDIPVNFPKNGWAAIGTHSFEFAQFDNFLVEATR
How it was run: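 Mutant human GALC (G270D), stably expressed in a Twitcher mouse brain cell line lacking endogenous GALC, is measured in live-treated cells via 6-hexadecanoylamino-4-methylumbelliferyl-β-galactoside hydrolysis (0.1 mM final, pH 5.2) with fluorescent detection.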
Further: 0% is about no effect; nearly all actives have a fitted effect of over 65% in size.

activation, inactive:
COCCNC(=O)C(=O)Nc1c2c(nn1-c1ccccc1)CS(=O)(=O)C2 -14.1%
Cc1ccccc1NC(=O)CSc1nc2ccc(NC(=O)COc3ccccc3F)cc2s1 -13.5%
COc1cc(OC)c(NC(=O)Cn2c(=O)cc(C(F)(F)F)c3c(C)nn(C)c32)cc1Cl -8.36%
CCc1ccccc1NC(=O)c1cnn2c(C(F)(F)F)cc(-c3ccc(OC)c(OC)c3)nc12 4.2%
COc1ccccc1CNc1nc(-c2ccco2)nn1S(=O)(=O)c1ccc(Cl)cc1 -14.7%
COc1cc(C(=O)Nc2ccc(-c3cc(C(F)(F)F)nn3-c3ccccc3)cc2)cc(OC)c1OC -14.4%
CCOC(=O)c1cnn(-c2cccc(F)c2)c1C1CCNCC1 -0.123%
COc1ccccc1OCc1ccc(C(=O)Nc2ccc(C)c(C)c2)o1 -11.6%
Cc1cccc(NC(=O)Cn2nc(N3CCN(c4ccccc4)CC3)ccc2=O)c1C -6.75%
CCOC(=O)c1c(C)sc(-c2c(-c3cc(C)ccc3C)[nH]c3c2c(=O)[nH]c(=O)n3C)c1O -14.7%
CCOc1ccc(CCNC(=O)Cn2nc(C)c3c(C)n(-c4ccccc4)nc3c2=O)cc1OCC -13.1%
COc1cccc(CNC(=O)CCC(=O)N2CC3CCCN3c3ccccc32)c1 (stereo unspecified) -1.98%
Cc1ccccc1NC(=O)CN(C)S(=O)(=O)c1cccc2nsnc12 -15.6%
O=C(NCc1ccc(F)cc1)C1CCN(C(=O)c2cnn(-c3ccccc3)c2-n2cccc2)CC1 -13.8%
O=C(Nc1ccccc1C(=O)O)c1cccc(S(=O)(=O)N2CCCC2)c1 -9.83%
CCOc1cc(C(=O)NCc2ccc3c(c2)CCN3C(=O)CC)cc(OCC)c1OCC -2.51%
CCCCN(CC)CCCNC(=O)c1cn(C)c2ccc(S(=O)(=O)N(C)C3CCCCC3)cc2c1=O -11.3%
Cc1ccc(C(=O)N2CCN(c3ccccc3F)CC2)cc1NC(=O)c1nsc2ccccc12 -12.8%
COc1ccc(-c2[nH]ncc2C(=O)NCc2ccc(F)cc2)cc1 -2.55%
CCc1cccc(NC(=O)Cn2c(=O)n(CC3CCC(C(=O)NCCc4ccccc4)CC3)c(=O)c3ccccc32)c1 (stereo unspecified) 9.25%
CCC(Cn1nnc2ccccc2c1=O)NC(=O)Nc1cccc(Cl)c1 (stereo unspecified) -10.3%
O=C(CSC1=Nc2ccccc2N=C(c2ccc(F)cc2)C1)Nc1cc(F)ccc1F -8.9%
COc1ccc(Cl)cc1NC(=O)CN1c2ccccc2S(=O)(=O)c2ccccc21 -17.1%
COc1ccc(N2C(=O)C(CC(=O)Nc3ccc(F)cc3)N(CCC3=CCCCC3)C2=O)cc1 (stereo unspecified) -14.5%
COc1ccccc1CCNC(=O)Cc1c(C)c2c(cc(C)c3c(C)coc32)oc1=O 5.19%
O=C(NC1CC(=O)N(c2cccc(F)c2)C1)C1CCCCC1 (stereo unspecified) 7.35%
CN(C(=O)Nc1cn(C)c(=O)c2ccccc12)c1ccccc1 -6.49%
CCCN1C(=O)CN(C2CCCCCC2)C(=O)C1c1ccc(OCC)c(OC)c1 (stereo unspecified) 11.5%
COc1ccccc1CCNC(=O)c1cc2ccccn2n1 -15.3%
COCCCNC(=O)c1c(NC(=O)c2cc(=O)c3cc(C)c(C)cc3o2)sc2c1CCCC2 -1.14%
CCCCNc1cc(NC2CCCCC2)c2c3c(onc13)-c1ccccc1C2=O -8.94%
COC(=O)c1cc2sccc2n1Cc1ccccc1 -1.51%
O=C(CCC1N=C2c3ccccc3N=C(SCc3cccc(F)c3)N2C1=O)NC1CCCCC1 (stereo unspecified) -13.5%
CC1=C(C(=O)Nc2ccccc2Cl)C(c2cccs2)n2ncnc2N1 (stereo unspecified) 10.8%
O=[N+]([O-])c1ccc(O)c2ncccc12 -5.37%
Cc1ccc(SCC(=O)Nc2cccc(-c3nc4cc(Cl)ccc4o3)c2C)cc1 0.203%
CCCOc1ccc(CNC(=O)C2CCN(c3nc4ccccc4nc3C(F)(F)F)CC2)cc1 -15.3%
CCn1cc2nc(SCc3cccc(OC)c3)n(Cc3ccc(Cl)cc3)c(=O)c2n1 1.69%
O=S(=O)(NCc1ccccc1)c1ccc2[nH]c3c(c2c1)CCCCC3 -40.2%
Cc1cc(NS(=O)(=O)c2ccc(NC(=O)COc3c(C)cc(Br)cc3C)cc2)no1 -15%
COc1cccc(NS(=O)(=O)c2ccc3[nH]cc(C(=O)NC4CCCCC4)c(=O)c3c2)c1 -10.2%
CCOc1ccc(C(=O)Nc2ccc(C(=O)OCc3cc(=O)n4nc(CC)sc4n3)cc2)cc1 -5.02%
COC(=O)c1ccc(NC(=O)N2CCC(CN3CCc4ccccc4C3)CC2)cc1 -1.92%
COc1ccc(/C=C/C(=O)N2CCC(c3nc4ccccc4o3)CC2)cc1 -4.51%
COc1ccc(NC(=O)CSc2ccc(-c3cccs3)nn2)cc1 0.266%
COc1cccc(C(=O)Nc2cc(-c3ccccc3)nn2-c2ccccc2)c1 -8.36%
CC(=O)Oc1ccc(C(c2ccc(OC(C)=O)cc2)c2ccccn2)cc1 -10.8%
O=C(COc1ccc2oc3c(c2c1)CCCC3)Nc1ccc(Cl)cc1 -7.7%
CCOc1ccc(-c2c(C)nn3c(-c4ccccc4)c(C(=O)NCCOC)cnc23)cc1OCC -20%
CCOc1ccc(N(CC)S(=O)(=O)N2CCCC(C(=O)Nc3ccc(NC(C)=O)cc3)C2)cc1 (stereo unspecified) -22.8%
CN(C)C(=O)COC(=O)Cc1ccc(OC(=O)c2ccc(N=C(N)N)cc2)cc1 -21.1%
Cc1ccc(S(=O)(=O)N2CCCc3cc(NC(=O)c4ccc(F)c(F)c4)ccc32)cc1 -2.08%
CCOC(=O)c1ccc(NS(=O)(=O)c2cn(C)c(C)n2)cc1 -10.1%
CCS(=O)(=O)c1nc(S(=O)(=O)c2ccc(C)cc2)c(NCc2ccc(Cl)cc2)s1 -15.4%
COc1cccc(N2C(=O)C(CC(=O)Nc3ccc(F)cc3)N(CCC3=CCCCC3)C2=O)c1 (stereo unspecified) -3.83%
CCc1ccc(NC(=O)CC2C(=O)N(c3ccc(C)cc3)C(=O)N2CCc2ccncc2)cc1 (stereo unspecified) -20.3%
O=C1C2=C(Nc3ccccc3SC2c2ccc(Cl)c(Cl)c2)c2ccccc21 (stereo unspecified) -10.9%
COc1cccc(NC(=O)CN2C(=O)COc3ccc(S(=O)(=O)N4CCCCCC4)cc32)c1 -1.57%
CCOc1ccc(NC(=O)Cn2cc(C(=O)c3ccc(OCC)cc3)c(=O)c3cc4c(cc32)OCCO4)cc1 -7.1%
COc1ccccc1Cn1c(CNS(=O)(=O)c2ccc(CC(C)C)cc2)nc2cccnc21 -1.81%
COc1ccc(NC(=O)N(C(C)C)C2CCN(C(C)=O)CC2)c(OC)c1 -13.9%
Cc1ccc(CCNC(=O)c2cc3cc4cc(C)ccc4nc3s2)cc1 -18.7%
Cc1cc(SCC(=O)Nc2ccc(Cl)cc2)nc2ccccc12 -9.4%
CCc1ccc(-c2cc(C)no2)cc1S(=O)(=O)Nc1ccc(Cl)cn1 7.29%
Cc1ccc(Cn2cc(C(=O)c3ccc(C)cc3)c(=O)c3ccc(C)nc32)cc1 -14.6%
CC(=O)N1CCCc2cc(S(=O)(=O)N3CCCC(C(=O)NCc4ccccc4)C3)ccc21 (stereo unspecified) -20.7%
Cc1cccc(NC(=O)CSc2cn(CC(=O)N3CCCC3)c3ccccc23)c1C -18.2%
Cc1cccc(C)c1OCC(=O)N1CCC(c2nc3ccccc3o2)CC1 -14.5%
Nc1c(C(=O)NCc2ccc3c(c2)OCO3)nnn1CC(=O)Nc1ccc(Br)cc1 -12%
COc1ccc(NC(=O)CN(C)S(=O)(=O)c2ccc(C(=O)N3CCOCC3)s2)cc1 -2.57%
N=c1nc(N2CCCCC2)cc(N)n1O -12.6%
CCc1nn2c(-c3ccco3)ccnc2c1-c1ccccc1 -7.78%
Cc1cc(NC(=O)C2CCC(CNS(=O)(=O)c3ccc(Br)s3)CC2)ccc1Br (stereo unspecified) -13.2%
COc1cc(OC)c(NC(=O)c2cc3c(s2)-c2ccc(Cl)cc2SC3)cc1Cl -2.45%
Cc1cccc(N2CCN(C(=O)C3CCN(Cc4nc(-c5ccc(Cl)cc5)oc4C)CC3)CC2)c1C -6.85%
Cn1c(C(=O)NCc2ccc(F)cc2)cc2cc(S(=O)(=O)N3CCCCC3)ccc21 -15.9%
COc1ccc(NC(=O)CSc2nc(-c3ccc(OC)cc3)cc(=O)[nH]2)cc1 -14.5%
CCOC(=O)c1cc(S(=O)(=O)Nc2ccc(OC(F)(F)F)cc2)[nH]n1 -19.2%
CCC1CN(C(=O)N2CCC(C(=O)NCc3cc(OC)ccc3OC)CC2)c2ccccc2O1 (stereo unspecified) -17.8%
Cc1ccc(-n2nc(C(=O)NCCc3cccc(C)c3)c3c4ccccc4n(C)c3c2=O)cc1 -7.87%
COc1ccc(OC)c(CNC(=O)c2cc(-c3ccc(Cl)s3)nc3ccccc23)c1 2.62%
COc1cc(-c2nc3n(n2)C(c2ccc(F)cc2)C(C(N)=O)=C(C)N3)cc(OC)c1OC (stereo unspecified) -16.5%
COc1ccccc1NC(=O)c1oc2ccccc2c1NC(=O)c1ccc(S(=O)(=O)N(C)C)cc1 -4.47%
O=C(NCc1ccccc1Cl)c1cnc(N2CCCCC2)c2ccccc12 9.97%
CCN(C(=O)Cn1c(SCC(=O)NCc2ccccc2)nc2ccccc21)c1cccc(C)c1 -11.6%
O=C(Nc1cccc(Cl)c1Cl)c1cc2nc(-c3ccc4c(c3)OCO4)cc(C(F)(F)F)n2n1 -16.4%
Cc1cccn2c(Nc3ccc4c(c3)OCCO4)c(-c3ccc(Br)o3)nc12 -10.1%
COc1ccc(-c2cc3ccc(O)c(CN4CCN(CCO)CC4)c3oc2=O)cc1OC -13.5%
Cc1ccc(N2C(=O)c3oc4cc(C)c(C)cc4c(=O)c3C2c2cccc(O)c2)nc1 (stereo unspecified) -13.5%
CCCN(CCC)C(=O)c1c[nH]c2ccc(S(=O)(=O)Nc3cc(C)cc(C)c3)cc2c1=O -26.6%
Cc1ccc(NC(=O)c2nc(S(=O)(=O)Cc3cccc(C)c3)ncc2Cl)cc1 -22.3%
Cc1ccc(CNC(=O)c2cc(C3CC3)nc3c2c(C)nn3-c2cccc(Cl)c2C)cc1 -16.9%
Cc1ccc(C)c(NC(=O)CSc2nnc(C)n3c2cc2occc23)c1 -12.9%
COc1ccc(OC)c(-c2noc(N3CCN(c4cc(Cl)ccc4C)CC3)n2)c1 14.6%
C[C@@H]1CN(c2c(F)c(F)c3c(=O)c(C(=O)O)cn(C4CC4)c3c2F)C[C@H](C)N1 -20% [at 23.8 µM]
CCC1CCCCN1CCCNC(=O)c1ccc2c(c1)sc1nc(-c3ccc(F)cc3)cn12 (stereo unspecified) -10.3%
